# The campaign covered roughly 310,000 compounds. About 14,000 (4.5%) showed an effect of 50% or more. The effect is printed as a negative number. The list shows a part of the results.
# Molecular target: human ether-à-go-go-related gene (hERG) potassium channel (human, UniProt Q12809)
# Experiment: primary screen, population patch clamp on CHO cells stably expressing hERG
# 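Note: peak tail current of the secondary pulse compared with the same well before compound.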
# human ether-à-go-go-related gene (hERG) potassium channel, sequence (Q12809 whole entry, looked up): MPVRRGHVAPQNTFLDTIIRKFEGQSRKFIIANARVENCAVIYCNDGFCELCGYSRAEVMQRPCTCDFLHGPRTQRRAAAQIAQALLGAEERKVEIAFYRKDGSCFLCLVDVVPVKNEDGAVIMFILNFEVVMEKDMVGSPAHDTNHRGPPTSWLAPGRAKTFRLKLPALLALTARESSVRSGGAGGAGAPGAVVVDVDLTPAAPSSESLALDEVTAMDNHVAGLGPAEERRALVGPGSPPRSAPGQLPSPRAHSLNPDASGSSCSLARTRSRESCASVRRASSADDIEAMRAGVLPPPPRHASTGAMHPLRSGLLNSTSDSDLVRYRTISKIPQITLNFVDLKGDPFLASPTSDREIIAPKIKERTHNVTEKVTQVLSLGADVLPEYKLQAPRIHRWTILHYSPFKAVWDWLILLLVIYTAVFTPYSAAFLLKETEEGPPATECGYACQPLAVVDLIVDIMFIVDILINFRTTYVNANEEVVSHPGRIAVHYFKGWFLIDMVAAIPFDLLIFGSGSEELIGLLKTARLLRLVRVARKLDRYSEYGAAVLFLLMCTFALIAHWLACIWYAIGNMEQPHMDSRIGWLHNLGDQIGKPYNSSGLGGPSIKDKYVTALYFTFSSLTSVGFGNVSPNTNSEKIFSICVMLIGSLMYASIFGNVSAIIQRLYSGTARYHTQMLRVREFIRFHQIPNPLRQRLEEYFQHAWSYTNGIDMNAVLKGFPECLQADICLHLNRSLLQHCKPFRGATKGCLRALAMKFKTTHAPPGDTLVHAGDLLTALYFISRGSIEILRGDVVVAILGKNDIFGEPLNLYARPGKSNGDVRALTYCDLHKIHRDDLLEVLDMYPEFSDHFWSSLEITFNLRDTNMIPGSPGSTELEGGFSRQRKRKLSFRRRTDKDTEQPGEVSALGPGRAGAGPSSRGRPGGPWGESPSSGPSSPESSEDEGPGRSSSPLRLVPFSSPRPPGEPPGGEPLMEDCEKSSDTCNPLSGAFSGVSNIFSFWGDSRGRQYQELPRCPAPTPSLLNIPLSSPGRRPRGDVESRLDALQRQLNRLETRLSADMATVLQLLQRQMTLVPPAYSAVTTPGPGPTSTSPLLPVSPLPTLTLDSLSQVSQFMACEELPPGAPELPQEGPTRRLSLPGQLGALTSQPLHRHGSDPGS
row,Compound,"hERG current change (%, negative = inhibition) at 10uM [%]"
1,CCCN(CC(=O)Nc1ccccc1OC)C(=O)c1ccc2c(c1)NC(=O)C(C)S2 (stereo not drawn),-20.8
2,CSCCC(NS(=O)(=O)c1ccc2c(c1)OCCO2)C(=O)N(C)Cc1ccccc1F (stereo not drawn),-26.1
3,COc1cccc(-c2cc(C(F)(F)F)nc(N3CCN(c4ccccc4)CC3)n2)c1,13.8
4,Cn1c(N)c(C(=O)COC(=O)C2CC(=O)N(Cc3ccccc3)C2)c(=O)n(C)c1=O (stereo not drawn),3.62
5,CS/C(N)=N/N=C/c1cc(Br)cc(Br)c1O,4.8
6,Cc1ccc(S(=O)(=O)Oc2ccc(N3C(=O)C4C5CCC(C5)C4C3=O)cc2)cc1 (stereo not drawn),11.4
7,COc1ccc(/C=N\NC(=O)c2cc3c(ccc4ccccc43)o2)cc1O,5.36
8,CC1(C)CC2(CCO1)CNC(=O)O2 (stereo not drawn),2.78
9,COc1ccc(/C=N/Nc2nc(-c3ccc(C)cc3)c(NC(C)=O)s2)cc1OC,11
10,Cc1nnc(NC(=O)CSc2nc(N)c(NC(=O)c3cccs3)c(=O)[nH]2)s1,9.44
11,CC(C)CC(NC(=O)c1ccc(Cl)cc1)C(=O)OCc1cc([N+](=O)[O-])cc2c1OCOC2 (stereo not drawn),-4.59
12,O=C(CSc1ccc([N+](=O)[O-])cc1)NNC(=O)c1ccccc1F,-38.9
13,O=C(OCC(=O)N1CCCCCC1)c1ccc([N+](=O)[O-])cc1Cl,8.47
14,CCc1ccccc1NC(=O)c1cc(S(=O)(=O)N(C)C)ccc1N1CCCC1,-32.2
15,c1csc(-c2nc(NCCCN3CCOCC3)c3ccccc3n2)c1,-50.7
16,CCOc1ccc2ccccc2c1C1NC(=S)N(C)C(C)=C1C(=O)OC (stereo not drawn),14.4
17,COc1c(C=O)c(CCN(C)C(=O)c2ccc(F)cc2)cc2c1OCO2,7.91
18,Cc1nn(Cc2c(F)c(F)c(F)c(F)c2F)c(C)c1NC(=O)c1c([N+](=O)[O-])c(C)nn1C,18.5
19,Cc1ccc(S(=O)(=O)N2CCN(C(=O)C3=COCCO3)CC2)cc1C,-17.1
20,CC1(C)OC(c2ccccc2)=C/C(=C\C=N\NC(=O)c2ccncc2)O1,-11.5
21,CCc1nn(CCCC(=O)N2CCN(c3ccc(OC)cc3)CC2)c(=O)c2cc3occc3n12,-2.74

row,Compound,"hERG current change (%, negative = inhibition) at 10uM [%]"
1,O=C(Cc1cccc(NC(=O)C2CCN(C(=O)C3CCCCC3)CC2)c1)Nc1cccc(C(=O)N2CCCC2)c1,7.98
2,CCOC(=O)C(C)Oc1cccc2c(=O)n(CC(=O)Nc3ccc(OCC)cc3)ccc12 (stereo not drawn),2.38
3,COc1ccc(N2CC(C(=O)NNC(=O)c3ccc(Br)cc3)CC2=O)c(OC)c1 (stereo not drawn),-20.2
4,CCN(CC)CCCN=C(C)c1c(O)n(C2CCCCC2)c(=O)[nH]c1=O,-48.7
5,O=C(CN1CCN(c2ccccc2)CC1)N/N=C/c1cccc(F)c1,4.27
6,Cc1ccc(/C=C2/NC(=O)N(Cc3ccccc3F)C2=O)s1,11.8
7,CCOC(=O)C1=C(COC(=O)CNC(=O)c2ccccc2F)NC(=O)NC1C (stereo not drawn),7.46
8,O=C1CCC([N+](=O)[O-])C(c2ccc(Br)cc2)N1 (stereo not drawn),7.57
9,COC(=O)C1Cc2c([nH]c3ccccc23)C2(CCN(Cc3ccccc3)CC2)N1 (stereo not drawn),-68.2
10,COc1ccc(CCNC(=O)c2ccc(-c3ccc([N+](=O)[O-])cc3Cl)o2)cc1OC,-16.5
11,CC(C)Cn1c(SCC(=O)N(C)c2c(N)n(Cc3ccccc3)c(=O)[nH]c2=O)nc2ccccc21,17
12,O=C(O)Cc1ccc(-n2cccc2)cc1,29.2
13,COc1cccc(CNC(=S)Nc2cccc(Cl)c2C)c1,4.16
14,COc1ccc(S(=O)(=O)N2CCCCCC2)cc1NC(=O)CN1C(=O)NC(C)(c2ccc(C)cc2)C1=O (stereo not drawn),-12.8
15,O=C(NCc1ccco1)C(c1ccncc1)N(C(=O)Cn1nnc2ccccc21)c1ccccc1F (stereo not drawn),-4.14
16,Cc1ccc(-c2c[n+](Cc3ccc(Cl)c(Cl)c3)c3n2CCC3)cc1.[Cl-],-68.9
17,COc1ccc(S(=O)(=O)N2CCN(CCc3ccccc3)CC2)cc1,5.3
18,Cc1ccc(C2=NN(CCC(=O)NCc3ccc4c(c3)OCO4)C(=O)CC2)cc1,-69.7
19,O=C1CCCN1CCCNc1ncnc2c1[nH]c1ccccc12,13
20,COc1ccc(CCC(=O)Nc2nccs2)cc1OC,4.3
21,COc1cc(CC(=O)Nc2ccc(S(=O)(=O)N(C)C)cc2)cc(OC)c1OC,0.00448

row,Compound,"hERG current change (%, negative = inhibition) at 10uM [%]"
1,O=C(Nc1ccc2c(c1)CCCN2C(=O)c1ccccc1)c1ccccc1,-29
2,Cc1cc(C)n(-c2nc3ccccc3nc2N2CCN(S(=O)(=O)c3ccc(F)c(C)c3)CC2)n1,9.54
3,CON(C)c1nc(OCCNC(=O)COc2ccc(Cl)cc2C)nc(N(C)C)n1,-12.7
4,Cc1ccc2cc(CN(C)S(C)(=O)=O)c(=O)[nH]c2c1,26.9
5,Cc1ccc(NC(=O)CC2=NC(=O)C(CC(=O)Nc3ccccc3F)S2)cc1 (stereo not drawn),16.9
6,COc1ccc(C(C)=O)cc1CSc1nnc(Nc2ccc(C)cc2C)s1,6.51
7,CCOc1ncccc1C(=O)OCC(=O)Nc1ccc(C)c(S(=O)(=O)N2CCOCC2)c1,-27
8,COCCn1c(C)cc(C(=O)COC(=O)CNC(=O)c2ccco2)c1C,11
9,CN(C)/C=N/c1c(C#N)cnn1-c1ncnc2sc(-c3ccccc3)cc12,-26
10,CC(c1ccc(O)cc1)(c1ccc(O)cc1)c1ccc(CCBr)cc1,10.3
11,Cc1cc(C(=O)NCC(=O)OCC(=O)N(C)C2CCCCC2)ccc1[N+](=O)[O-],-0.454
12,Cc1cc(C(=O)N2CCN(S(=O)(=O)c3ccc(F)c(Cl)c3)CC2)c(C)o1,-43.6
13,COc1ccc(CCNC(=O)COC(=O)c2ccc(C)s2)cc1OC,12.1
14,Cc1nn(Cc2ccccc2Cl)c(Cl)c1C(=O)OCC(=O)NCc1ccco1,11.9
15,Nn1c(SCc2ccc(F)cc2)nnc1-c1cccnc1,-5.26
16,Cc1ccnc(NC(=O)c2ccc(S(=O)(=O)N3CCCC3)cc2)c1,-16
17,Cc1cc(S(=O)(=O)NCc2cccs2)ccc1-n1cnnn1,-0.232
18,Cc1ccc(CCNC(=O)C2CC(c3cc(C(F)(F)F)cc(C(F)(F)F)c3)=NO2)cc1 (stereo not drawn),9.4
19,CCn1cc(C(=O)N[C@H](C(=O)NCCO)C(C)C)c(=O)c2cc3c(cc21)OCO3,13.2
20,O=C(NNC(=O)C1C2C=CC(C2)C1C(=O)O)c1ccccc1O (stereo not drawn),5.46
21,CC1=C/C(=C(\c2ccc(O)c(C)c2)c2ccccc2S(=O)(=O)O)C=CC1=O,26.3

row,Compound,"hERG current change (%, negative = inhibition) at 10uM [%]"
1,COc1ccc(CCN2C(=O)CS/C2=N\NC(=O)c2ccc(C(C)(C)C)cc2)cc1OC,11.3
2,O=C1/C(=C/c2ccccc2)Nc2ccccc21,2.99
3,Br.CC(=O)NNc1nc(-c2ccc(C)cc2)cs1,17.1
4,CC(/C=C1\SC(=S)N(C(C(=O)O)c2ccccc2)C1=O)=C\c1ccccc1 (stereo not drawn),6.23
5,Cc1ccc(C(=O)Nc2nnc(C3=COCCO3)o2)cc1C,-16.3
6,CCOC(=O)c1c(C)[nH]c(C(=O)/C(C#N)=C/c2ccc(OC)c(OC)c2)c1C,9.5
7,CCn1c(C)c(C)c2cc(C(=O)NCCCN3CCN(C)CC3)ccc21,15.5
8,CCC1CCCCN1C(=O)c1c(-c2ccccc2)noc1C (stereo not drawn),3.53
9,Cc1cc(C(=O)CSc2nn3c(=O)c(C(C)(C)C)nnc3s2)c(C)n1C,9.61
10,O=C1CCCC2=C1C(c1cccs1)Nc1ccccc1N2 (stereo not drawn),9.43
11,CC(C)OC(=O)Nc1ccc2c(c1)N(C(=O)CCN1CCN(CCO)CC1)c1ccccc1CC2.Cl.O,7.07
12,Cc1ccc(C)n1-c1ccc(C(=O)N/N=C/c2ccncc2)cc1,-18.5
13,Cc1ccsc1/C=N/N=C1\C(=O)Nc2ccccc21,7.87
14,Cc1cc(C)n(C(=O)/C(C#N)=N/Nc2cc(Cl)cc(Cl)c2)n1,11.3
15,CCC(C)(C)NC(=O)C(c1cccs1)N(C(=O)c1ccn[nH]1)c1ccccc1 (stereo not drawn),-19.9
16,Cc1ccc(C)c(OCc2cc(C(=O)N3CCNC(=O)C3)no2)c1,10.4
17,CCOC(=O)N1CCC(N2CCCC(CO)(Cc3ccccc3C)C2)CC1 (stereo not drawn),0.621
18,COc1ccc(CC(=O)NNc2ncnc3c2cnn3-c2ccc(C)cc2)cc1,-1.17
19,O=C(Nc1ccc2[nH]c(=O)[nH]c2c1)Nc1ccc(F)cc1F,8.6
20,O=C(CCN1C(=O)c2ccc([N+](=O)[O-])cc2C1=O)Nc1nccs1,6.76
21,O=C(OCC(=O)N1CCCC1)c1ccc(OC(F)(F)F)cc1,-3.51

# From paper PMC4336329 (PLoS ONE, 2015)
